Measured values taken from the antibiotic and cytotoxicity screens of Wong et al. (2023).
Some of the results follow.

Experiments:
[1] = system: HSkMC (human skeletal muscle cells); test: cytotoxicity call (relative viability < 0.9); conditions: 10 µM
[2] = system: HepG2; test: cytotoxicity call (relative viability < 0.9); conditions: 10 µM
[3] = system: S. aureus RN4220; test: growth inhibition call (relative growth <= 0.2); conditions: 50 µM

CC(=O)NCCCC[C@@H]1NC(=O)[C@H]2C[C@@H](C(=O)NCCCCCCN(C)C)[C@@H](c3cccc(OCCO)c3)N2C1=O
cytotoxicity call [1]: inactive | cytotoxicity call [2]: inactive | growth inhibition call [3]: inactive

CCN1CCN(C(=O)/C=C\C(=O)O)CC1
cytotoxicity call [1]: inactive | cytotoxicity call [2]: inactive | growth inhibition call [3]: inactive

C[C@@H]1CN([C@@H](C)CO)S(=O)(=O)c2ccc(C#Cc3ccncc3)cc2O[C@H]1CN(C)C(=O)C1CCOCC1
cytotoxicity call [1]: inactive | cytotoxicity call [2]: active | growth inhibition call [3]: inactive

C[C@@H]1CN([C@@H](C)CO)C(=O)c2cc(NC(=O)C3CCCCC3)ccc2O[C@@H]1CN(C)C(=O)Nc1cccc2ccccc12
cytotoxicity call [1]: inactive | cytotoxicity call [2]: inactive | growth inhibition call [3]: inactive

C[C@@H](O)C#Cc1ccc2c(c1)O[C@H](CN(C)C(=O)Nc1ccccc1)[C@@H](C)CN([C@@H](C)CO)S2(=O)=O
cytotoxicity call [1]: inactive | cytotoxicity call [2]: inactive | growth inhibition call [3]: inactive

C[C@@H]1CN([C@H](C)CO)C(=O)c2cc(NS(=O)(=O)c3cn(C)cn3)ccc2O[C@@H]1CN(C)C(=O)Nc1ccc2c(c1)OCO2
cytotoxicity call [1]: inactive | cytotoxicity call [2]: inactive | growth inhibition call [3]: inactive

C[C@@H]1CN([C@H](C)CO)C(=O)c2cccc(NC(=O)Nc3cccc4ccccc34)c2O[C@@H]1CN(C)C(=O)Nc1cccc2ccccc12
cytotoxicity call [1]: inactive | cytotoxicity call [2]: inactive | growth inhibition call [3]: inactive

CN(C)C(=O)C[C@H]1CC[C@@H]2[C@@H](COc3ccc(NS(=O)(=O)c4cccc(F)c4)cc3C(=O)N2C)O1
cytotoxicity call [1]: inactive | cytotoxicity call [2]: inactive | growth inhibition call [3]: inactive

CO[C@@H](CN(C)S(=O)(=O)c1ccc(F)cc1)[C@H](C)CN([C@@H](C)CO)S(=O)(=O)c1cccc(Cl)c1
cytotoxicity call [1]: inactive | cytotoxicity call [2]: inactive | growth inhibition call [3]: inactive

CCCN1C(=O)C[C@@H](N2CCOCC2)C1=O
cytotoxicity call [1]: inactive | cytotoxicity call [2]: inactive | growth inhibition call [3]: inactive

CC(=O)N[C@H]1CC[C@H](CCNC(=O)C2CC2)O[C@H]1CO
cytotoxicity call [1]: inactive | cytotoxicity call [2]: inactive | growth inhibition call [3]: inactive

COc1ccc(S(=O)(=O)Nc2ccc3c(c2)C(=O)N([C@H](C)CO)C[C@@H](C)[C@H](CN(C)S(=O)(=O)c2cn(C)cn2)O3)cc1
cytotoxicity call [1]: inactive | cytotoxicity call [2]: inactive | growth inhibition call [3]: inactive

COc1ccc(NC(=O)N(C)C[C@@H]2OCCCC[C@@H](C)Oc3ccc(NS(=O)(=O)c4ccccc4)cc3C(=O)N([C@@H](C)CO)C[C@H]2C)cc1
cytotoxicity call [1]: inactive | cytotoxicity call [2]: inactive | growth inhibition call [3]: inactive

COC(=O)[C@@H](Cc1ccccc1)N[C@H](/C=C/C1CC1)[C@@H](O)CCn1cc(-c2ccc(C(=O)NO)s2)nn1
cytotoxicity call [1]: inactive | cytotoxicity call [2]: active | growth inhibition call [3]: inactive

CC(C)NC(=O)Nc1ccc2c(c1)C(=O)N([C@@H](C)CO)C[C@H](C)[C@H](CN(C)Cc1ccc(-c3ccccc3)cc1)O2
cytotoxicity call [1]: inactive | cytotoxicity call [2]: inactive | growth inhibition call [3]: inactive

C[C@H]1CN([C@@H](C)CO)C(=O)c2cccc(NC(=O)c3ccc(-c4nccs4)cc3)c2O[C@@H]1CN(C)S(=O)(=O)c1cn(C)cn1
cytotoxicity call [1]: inactive | cytotoxicity call [2]: inactive | growth inhibition call [3]: inactive

COc1ccc(S(=O)(=O)N(C)C[C@H]2Oc3ccc(NS(=O)(=O)c4cccs4)cc3C(=O)N([C@H](C)CO)C[C@@H]2C)cc1
cytotoxicity call [1]: inactive | cytotoxicity call [2]: inactive | growth inhibition call [3]: inactive

C[C@@H]1CN([C@@H](C)CO)C(=O)c2cc(NC(=O)Nc3cccc4ccccc34)ccc2O[C@@H]1CN(C)C(=O)Nc1ccc(C(F)(F)F)cc1
cytotoxicity call [1]: inactive | cytotoxicity call [2]: inactive | growth inhibition call [3]: inactive

NCC[C@@H]1CC[C@@H](NC(=O)C2CCCC2)[C@H](CO)O1
cytotoxicity call [1]: inactive | cytotoxicity call [2]: inactive | growth inhibition call [3]: inactive

O=C(C[C@H]1CC[C@H](NC(=O)Cc2ccccn2)[C@H](CO)O1)NCCCN1CCOCC1
cytotoxicity call [1]: inactive | cytotoxicity call [2]: inactive | growth inhibition call [3]: inactive

CC1(C)CCC2=C(O1)c1ccccc1C(=O)C2=O [beta-LAPACHONE ]
cytotoxicity call [1]: inactive | cytotoxicity call [2]: inactive

Nc1c2ccccc2nc2ccccc12
cytotoxicity call [2]: active | growth inhibition call [3]: inactive

CN(C)CCCN1c2ccccc2Sc2ccc(C(F)(F)F)cc21.Cl
growth inhibition call [3]: inactive

COc1cc(C)c(C=CC=CC=CC=CC(=O)O)c(C)c1C
growth inhibition call [3]: inactive

CC1(C)[C@H](C(=O)O)N2C(=O)C[C@H]2S1(=O)=O
growth inhibition call [3]: inactive

CCC(C)(C)C(=O)OC1CC(C)C=C2C=CC(C)C(CCC3CC(O)CC(=O)O3)C21 (configuration not stated)
growth inhibition call [3]: inactive

CC(C(=O)O)c1cccc(C(=O)c2ccccc2)c1 (configuration not stated)
growth inhibition call [3]: inactive

Cn1ncc(Br)c1C(=O)O
growth inhibition call [3]: inactive

CC1(C)CCC2=C(O1)c1ccccc1C(=O)C2=O [beta-LAPACHONE]
growth inhibition call [3]: inactive

C[C@H]1CN([C@@H](C)CO)C(=O)c2cc(NC(=O)Nc3ccc(C(F)(F)F)cc3)ccc2O[C@@H]1CN(C)Cc1ccc(-c2ccccc2)cc1
growth inhibition call [3]: inactive
